Molecules are shown by their SMILES. Hit rate of the full screen: of about 48,000 compounds, about 450 (0.94%) were called active. Inconclusive results (about 19%) are left out. Calls come from the whole dose curve; as a rule, active = well fitted inhibition curve with a large enough effect; inconclusive = small, poorly fitted or top-dose-only effect; inactive = no such curve, though single readings can be large or run the other way. The list shows a part of the results.

A short description of this test: Primary qHTS for Identification of Small Molecule Inhibitors of Huntingtin Promoter Activity. Note: nearly all actives have a fitted effect of over 50% in size. To be noted: HEK293 HTT promoter firefly luciferase reporter (activity 0% = vehicle and -100% = no light), 24 h; series mostly up to 57.5 µM; activity change, negative = inhibition: at the top concentration. The gist of the method: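 HEK293 Fluc reporter, 2,500 cells/well, 24 h pre-culture; cpds up to 57.5 uM final, 24 h 37 degrees C; Dual-Glo, 10 min RT; normalized vehicle = 0%, zero RLU = -100%.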
For orientation: Quantitative high-throughput screening tests each substance at several concentrations.
`N#Cc1ccccc1NC(=O)C(=O)NCCc1csc(-c2ccc(F)cc2)n1`: the “activity change, negative = inhibition” value is inactive: -14.5%.

For the compound `CCNC(=O)CC1C(=O)N(c2ccc(C)cc2)C(=O)N1CCC(C)C` (centres undefined), the “activity change, negative = inhibition” value was inactive: -17.3%.

In the case of `O=C(Cn1c(=O)oc2cc(S(=O)(=O)N3CCCC3)ccc21)Nc1ccc(F)cc1F`, the “activity change, negative = inhibition” value was inactive: -26.8%.

Regarding `CCCCOc1cccc(NC(=O)c2cccc(C(=O)Nc3cccc(OCCCC)c3)c2)c1`, the “activity change, negative = inhibition” value is inactive: 23.1%.

As for `CCOC(=O)c1c(C)oc2nc(C)nc(NCc3cccc(Cl)c3)c12`, the “activity change, negative = inhibition” value was inactive: -10%.

As to `O=C(c1cccc(Cl)c1)n1nc(-c2cccnc2)nc1NCc1ccccc1`, the “activity change, negative = inhibition” value was inactive: -18.2%.

For the compound `CCOC(=O)C1=C(N)Oc2ccc(Br)cc2C1C(C#N)C(=O)OCC` (centres undefined), the “activity change, negative = inhibition” value is inactive: 11.6%.

As for `CCOC(=O)c1nc(Nc2ccc(C(=O)OC)cc2)c2ccccc2n1`, the “activity change, negative = inhibition” value is inactive: -19.2%.

For `CSCCC(NS(=O)(=O)c1ccc2c(c1)oc(=O)n2C)C(=O)N1CCN(c2ccc(C(C)=O)cc2)CC1` (centres undefined), the “activity change, negative = inhibition” value is inactive: -5.12%.

Turning to `COc1cccc(C(=O)NCC(=O)OCc2cc(=O)n3ccsc3n2)c1`, the “activity change, negative = inhibition” value is inactive: -13.4%.

Consider `CCc1ccccc1NC(=O)c1ccc(=O)n(Cc2ccc(F)cc2)c1`, for which the “activity change, negative = inhibition” value was inactive: -14%.

Take `CCc1ccc(-n2c(=O)c3cccnc3n2CC(=O)Nc2cc(OC)ccc2OC)cc1`: the “activity change, negative = inhibition” value was inactive: 1.28%.

On to `COc1cc(OC)cc(C(=O)Nc2nnc3n2CCS3)c1`, for which the “activity change, negative = inhibition” value is inactive: 0.745%.

In the case of `Cc1ccc(C(=O)Nc2nc(-c3nnn(-c4cccc(C(F)(F)F)c4)c3C)ns2)cc1`, the “activity change, negative = inhibition” value was inactive: -25.8%.

Consider `Cc1ccc(CCNC(=O)c2cn(C)c3ccc(S(=O)(=O)N4CCC(C)CC4)cc3c2=O)cc1`, for which the “activity change, negative = inhibition” value is inactive: 0.608%.

With `Cc1cc(C)c(NC(=O)CCCn2c(C)c3cnn(-c4ccccc4)c(=O)c3c2C)c(C)c1`, the “activity change, negative = inhibition” value was inactive: -27.5%.

In the case of `CC(C)CC(=O)Nc1nnc(SCc2cc(=O)n3ccccc3n2)s1`, the “activity change, negative = inhibition” value is inactive: -5.25%.

With `CCOC(=O)c1c(S(=O)(=O)NCC(=O)Nc2ccc(F)cc2C)c(C)n(C)c1C`, the “activity change, negative = inhibition” value is inactive: -6.46%.

Regarding `COc1cc(OC)cc(-c2nc3nc(C)c(CCC(=O)NCCC(C)C)c(C)n3n2)c1`, the “activity change, negative = inhibition” value was inactive: 0.0846%.

Turning to `O=c1c(S(=O)(=O)c2cccc(Cl)c2)cn(Cc2ccccc2)c2cc(N3CCCCC3)c(F)cc12`, the “activity change, negative = inhibition” value was inactive: -10.1%.

As for `COc1ccccc1NC(=O)CN1C(=O)CSc2ccc(S(=O)(=O)N3CCCC3)cc21`, the “activity change, negative = inhibition” value is inactive: -9.82%.

With `CCn1ccc2cc(S(=O)(=O)N3CCC(C(=O)NCCc4ccccc4)CC3)ccc21`, the “activity change, negative = inhibition” value was inactive: 0%.

Take `CC(=O)C1=C(c2ccc(Br)cc2)N(C(C)=O)n2c(nnc2C2CCCCC2)S1`: the “activity change, negative = inhibition” value is inactive: -15.8%.

In the case of `COc1cc(OC)c(NC(=O)c2c(C)oc3nc(C)nc(N4CCOCC4)c23)cc1Cl`, the “activity change, negative = inhibition” value is inactive: 1.13%.

Turning to `COc1cccc(-n2cc(C(=O)OCc3ccc(Cl)cc3)c3ccccc3c2=O)c1`, the “activity change, negative = inhibition” value is inactive: -24.3%.

As for `Cc1cccc(CNC(=O)c2ccc(C)c(-n3c(C)nc4cccnc43)c2)c1`, the “activity change, negative = inhibition” value was inactive: -14%.

Regarding `CCOc1ccc(-n2c(=O)c3c(C)c(C)sc3n(CC(=O)N3CCC(C)CC3)c2=O)cc1`, the “activity change, negative = inhibition” value is inactive: -4.57%.

For `O=C(NCc1ccccc1Cl)c1ccc(Cn2c(=O)c3cccn3c3cccnc32)cc1`, the “activity change, negative = inhibition” value is inactive: -11.6%.

In the case of `COCCCNC(=O)c1cnn(-c2ccc(F)cc2F)c1C1CCNCC1`, the “activity change, negative = inhibition” value was inactive: -13.9%.

`COc1cc([C@H]2Oc3cc([C@H]4Oc5cc(O)cc(O)c5C(=O)[C@@H]4O)ccc3O[C@@H]2CO)ccc1O`: the “activity change, negative = inhibition” value is inactive: 0.239%.

Take `Cc1ccc2nc(NC(=O)c3nc(SCc4ccccc4C)ncc3Cl)sc2c1`: the “activity change, negative = inhibition” value was inactive: -9.11%.

`O=C(O)CCc1nnc2cnc3ccccc3n12`: the “activity change, negative = inhibition” value is inactive: 1.38%.

For `Cc1ccc2ncc(C(=O)NC(C)c3ccccc3)c(=O)n2c1` (centres undefined), the “activity change, negative = inhibition” value is inactive: -5.86%.

Turning to `CC(=O)N1CCC2(CC1)OC(=O)C(C)=C2C(=O)NCc1cccc(Cl)c1`, the “activity change, negative = inhibition” value was inactive: -21%.

`Cc1ccc(N2C(=O)CS(=O)(=O)C23C(=O)N(C)c2ccccc23)cc1F` (centres undefined): the “activity change, negative = inhibition” value is inactive: -19.5%.

For `Cc1ccc(N2CCN(C(=O)c3c(C)oc4ncnc(N5CCOCC5)c34)CC2)c(C)c1`, the “activity change, negative = inhibition” value is inactive: -9.68%.

As to `COc1cc(NC(=O)NCC2CCN(Cc3ccc(C)cc3)CC2)cc(OC)c1OC`, the “activity change, negative = inhibition” value was inactive: -21.7%.

Take `Cc1ccc(C(=O)Nc2nnc(S(=O)(=O)N3CCN(c4ccc(F)cc4)CC3)s2)cc1`: the “activity change, negative = inhibition” value is inactive: 22.1%.

In the case of `C[N+](C)(C)CC(O)CC(=O)[O-]` (centres undefined), the “activity change, negative = inhibition” value is inactive: 0.119%.

`Cc1ccc(CNC(=O)c2cnc3c(-c4ccccc4)c(C)nn3c2C)o1`: the “activity change, negative = inhibition” value was inactive: -13.8%.

Consider `O=[N+]([O-])c1cc(-c2nc(-c3ccccn3)no2)ccc1NCc1ccccc1`, for which the “activity change, negative = inhibition” value is inactive: 33.4%.

`COCCCNC(=O)CCC(=O)NNc1nc2ccccc2c2nc(-c3ccccc3)nn12`: the “activity change, negative = inhibition” value is inactive: -7.12%.

For the compound `O=C(NCCc1ccccc1)C(=O)NCC(c1ccco1)S(=O)(=O)c1ccccc1` (centres undefined), the “activity change, negative = inhibition” value is inactive: -20.5%.

As for `COCCNC(=O)CSc1nc2cc3c(cc2c(=O)n1Cc1ccc(C(=O)NCCc2ccc(OC)c(OC)c2)cc1)OCO3`, the “activity change, negative = inhibition” value is inactive: -14.8%.

Turning to `CCOc1ccc(NC(=O)CSc2nnc(-c3ccncc3)n2-c2ccccc2)cc1`, the “activity change, negative = inhibition” value is inactive: 9.22%.

As for `Nc1c[n+](N2CCOCC2)no1`, the “activity change, negative = inhibition” value is inactive: -2.16%.

For `COc1ccc(CNC(=O)c2ccc(CSc3nc4ccncc4n3Cc3ccccc3F)cc2)cc1`, the “activity change, negative = inhibition” value is inactive: -20.2%.

In the case of `CCOc1ccc(Nc2ncnc3c2cnn3-c2ccc(F)cc2)cc1`, the “activity change, negative = inhibition” value was inactive: 8.66%.

In the case of `CCOC(=O)C(=O)Nc1nnc2n1CCS2`, the “activity change, negative = inhibition” value was inactive: -8.94%.
